We go through 55 molecules from PMC4336329 (PLoS ONE, 2015).

Hit rate of the full screen: of about 310,000 compounds, about 2,200 (0.71%) showed an effect of 50% or more. Effects have a minus sign here. The list shows a part of the results.

The target in this assay is human ether-à-go-go-related gene (hERG) potassium channel (human, UniProt Q12809). The assay is described as follows: primary screen, population patch clamp on CHO cells stably expressing hERG.
human ether-à-go-go-related gene (hERG) potassium channel, sequence (Q12809 whole entry, looked up): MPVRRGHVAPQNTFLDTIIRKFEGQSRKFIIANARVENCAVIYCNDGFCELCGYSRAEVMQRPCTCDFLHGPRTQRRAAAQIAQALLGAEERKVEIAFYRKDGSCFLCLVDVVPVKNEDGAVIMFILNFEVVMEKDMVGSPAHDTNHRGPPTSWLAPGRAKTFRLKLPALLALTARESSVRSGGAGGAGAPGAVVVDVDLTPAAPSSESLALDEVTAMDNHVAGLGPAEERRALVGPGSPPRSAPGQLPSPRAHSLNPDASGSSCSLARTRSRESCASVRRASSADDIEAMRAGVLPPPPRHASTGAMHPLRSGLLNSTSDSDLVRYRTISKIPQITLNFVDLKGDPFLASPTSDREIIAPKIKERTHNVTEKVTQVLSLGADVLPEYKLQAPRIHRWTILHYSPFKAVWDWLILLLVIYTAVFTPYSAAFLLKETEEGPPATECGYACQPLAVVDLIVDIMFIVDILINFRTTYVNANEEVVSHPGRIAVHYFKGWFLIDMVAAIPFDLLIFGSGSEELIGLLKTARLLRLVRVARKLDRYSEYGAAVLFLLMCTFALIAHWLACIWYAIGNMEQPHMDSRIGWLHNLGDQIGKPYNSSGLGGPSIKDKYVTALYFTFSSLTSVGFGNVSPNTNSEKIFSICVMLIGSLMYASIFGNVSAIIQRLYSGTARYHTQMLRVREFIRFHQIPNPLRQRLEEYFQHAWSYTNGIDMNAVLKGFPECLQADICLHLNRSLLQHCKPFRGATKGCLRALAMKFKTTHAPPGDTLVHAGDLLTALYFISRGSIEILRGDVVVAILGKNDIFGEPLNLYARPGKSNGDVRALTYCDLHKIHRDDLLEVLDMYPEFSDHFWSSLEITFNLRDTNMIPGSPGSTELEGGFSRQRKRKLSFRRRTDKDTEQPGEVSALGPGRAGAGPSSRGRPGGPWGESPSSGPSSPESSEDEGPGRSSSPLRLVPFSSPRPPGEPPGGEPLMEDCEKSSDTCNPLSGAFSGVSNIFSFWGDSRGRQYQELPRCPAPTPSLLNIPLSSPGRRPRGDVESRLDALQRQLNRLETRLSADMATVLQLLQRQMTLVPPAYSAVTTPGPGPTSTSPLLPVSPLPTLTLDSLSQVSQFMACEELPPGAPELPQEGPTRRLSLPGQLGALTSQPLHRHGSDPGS
In the case of `O=C(NCc1ccncc1)c1ccc(Cl)c(S(=O)(=O)N2CCCCC2)c1`, the “hERG current change (%, negative = inhibition) at 1uM” value came out at 11%.

For `Cc1cc(C)n(CC(O)COc2ccccc2Br)n1` (stereo not shown), the “hERG current change (%, negative = inhibition) at 1uM” value came out at 15.7%.

For the molecule `COc1ccccc1N(CC(O)CN1CCCCC1)S(=O)(=O)c1ccc(C)cc1` (stereo not shown), the “hERG current change (%, negative = inhibition) at 1uM” value was found to be 2.61%.

In the case of `Cc1ccc(NC(=O)C2CCN(S(=O)(=O)c3ccc4c(c3)OCCO4)CC2)c(O)c1`, the “hERG current change (%, negative = inhibition) at 1uM” value is listed as 6.18%.

`CC(Sc1nc(O)c(-c2ccccc2)c(=O)[nH]1)C(=O)Nc1ccc(Cl)cc1` (stereo not shown): the “hERG current change (%, negative = inhibition) at 1uM” value worked out at 16.5%.

Consider `Cc1cc(C)nc(NC(=O)Nc2ccc3c(c2)OCO3)c1`, for which the “hERG current change (%, negative = inhibition) at 1uM” value turned out to be 6.32%.

Turning to `COc1ccccc1/C=N/n1c(N)c(S(=O)(=O)c2cccs2)c2nc3ccccc3nc21`, the “hERG current change (%, negative = inhibition) at 1uM” value stood at 8.89%.

Take `O=C(Cn1cnc2c(nc3n2CCCCC3)c1=O)Nc1cccc(C(F)(F)F)c1`: the “hERG current change (%, negative = inhibition) at 1uM” value is listed as -14.6%.

Turning to `CN=C1SC(CC(=O)Nc2ccc(C(=O)O)cc2)C(=O)N1C` (stereo not shown), the “hERG current change (%, negative = inhibition) at 1uM” value stood at 6.36%.

Take `Cc1cc(C)n(C2CC(=O)N(c3cc(Cl)cc(Cl)c3)C2=O)n1` (stereo not shown): the “hERG current change (%, negative = inhibition) at 1uM” value is on record as 10.4%.

For the molecule `CC(C)c1nnc(NC(=O)CS(=O)(=O)Cc2ccccc2)s1`, the “hERG current change (%, negative = inhibition) at 1uM” value is on record as 8.73%.

Take `N#CCN1CCC2(O)CCCCC2C1c1ccc2c(c1)OCO2` (stereo not shown): the “hERG current change (%, negative = inhibition) at 1uM” value is reported as -0.991%.

For the molecule `CC(=O)Nc1ccc(S(=O)(=O)NCCSCc2c(Cl)cccc2Cl)cc1`, the “hERG current change (%, negative = inhibition) at 1uM” value is 18.9%.

With `CCOC(=O)c1c(NC(=O)CC2Sc3ccc(C(F)(F)F)cc3NC2=O)sc(C)c1C` (stereo not shown), the “hERG current change (%, negative = inhibition) at 1uM” value is listed as 12.6%.

Turning to `COc1ccc(-c2cc(C)no2)cc1S(=O)(=O)Nc1cccc(C)c1`, the “hERG current change (%, negative = inhibition) at 1uM” value is 15.5%.

`CCCCNC(=O)Cn1c2c(c(-c3ccccc3Cl)cc1=O)CCC2`: the “hERG current change (%, negative = inhibition) at 1uM” value stood at 2.56%.

Consider `O=C(OCC(=O)N1CCCC1=O)c1cc(S(=O)(=O)N2CCOCC2)ccc1Cl`, for which the “hERG current change (%, negative = inhibition) at 1uM” value was determined as 1.6%.

For the molecule `CCOC(=O)[C@H]1[C@H]2COc3ccc(Br)cc3[C@@H]2N2C(=O)c3cc(F)c(F)cc3NC(=O)[C@@]12C`, the “hERG current change (%, negative = inhibition) at 1uM” value is on record as 3.49%.

Regarding `CCN(CC)C(=O)c1ccc(COc2ccccc2Br)o1`, the “hERG current change (%, negative = inhibition) at 1uM” value amounted to 5.54%.

Consider `O=C(CCc1ccccc1)Nc1cc(C(F)(F)F)ccc1Cl`, for which the “hERG current change (%, negative = inhibition) at 1uM” value was determined as 9.41%.

`O=S(=O)(NCC1(N2CCOCC2)CCCCC1)c1ccc(Cl)cc1C(F)(F)F`: the “hERG current change (%, negative = inhibition) at 1uM” value came to 13.7%.

Turning to `Cc1cccn2c(=O)c3cc(C(=O)N4CCCCC4C)sc3nc12` (stereo not shown), the “hERG current change (%, negative = inhibition) at 1uM” value stood at 17.6%.

Take `CCCn1c(SCC(=O)N2CCN(CC)CC2)nc2c1c(=O)n(C)c(=O)n2C`: the “hERG current change (%, negative = inhibition) at 1uM” value is 15.6%.

Take `CCOC(=O)CNC(=O)CSc1nnc(-c2cccc(OC)c2)n1CC`: the “hERG current change (%, negative = inhibition) at 1uM” value is recorded as 8.79%.

As to `Cc1cc(-c2n[nH]c(=S)n2/N=C/c2cccs2)n[nH]1`, the “hERG current change (%, negative = inhibition) at 1uM” value is reported as 8.9%.

As for `O=C(O)C1C2C=CC(C2)C1C(=O)OCc1ccccc1` (stereo not shown), the “hERG current change (%, negative = inhibition) at 1uM” value is given as 9.31%.

Consider `COCCCNC(=O)c1c(NC(=O)c2ccccc2)n(Cc2ccccc2)c2nc3ccccc3nc12`, for which the “hERG current change (%, negative = inhibition) at 1uM” value stood at 13.6%.

Consider `COc1ccccc1C(=O)N1CCN(CCNC(=O)C(=O)Nc2ccc(Br)c(C)c2)CC1`, for which the “hERG current change (%, negative = inhibition) at 1uM” value is reported as -10.5%.

For `COc1ccc(OC)c(C(=O)COC(=O)CNC(=O)C2CCCCC2)c1`, the “hERG current change (%, negative = inhibition) at 1uM” value stood at 12%.

Consider `COc1ccc(-c2nnn(CC(=O)N(Cc3cccs3)C(C)C(=O)NC3CCCC3)n2)cc1OC` (stereo not shown), for which the “hERG current change (%, negative = inhibition) at 1uM” value is recorded as -7.65%.

Regarding `CC(C)N(CCn1c(SCC(=O)N2CC(=O)Nc3ccccc32)nc2ccccc2c1=O)C(C)C`, the “hERG current change (%, negative = inhibition) at 1uM” value is given as -72.5%.

For `CCCNC(=O)NC(=O)CSc1ncc(C(F)(F)F)cc1Cl`, the “hERG current change (%, negative = inhibition) at 1uM” value was determined as 12.2%.

On to `Br.CCCCn1c(=N)n(CC(=O)c2ccc(OC)cc2)c2ccccc21`, for which the “hERG current change (%, negative = inhibition) at 1uM” value is recorded as -62.2%.

For `CCCn1c(SCC(=O)N2CCCc3ccccc32)nc2c1c(=O)n(C)c(=O)n2C`, the “hERG current change (%, negative = inhibition) at 1uM” value is recorded as -2.63%.

Take `COC(=O)c1c(N2C(=O)[C@H]3[C@@H](C2=O)[C@]2(C(=O)Nc4c(C)cc(C)cc42)N2CCC[C@@H]32)sc(C)c1C`: the “hERG current change (%, negative = inhibition) at 1uM” value turned out to be 12.5%.

Take `CC(C)N=C(Nc1cccnc1)c1ccccc1`: the “hERG current change (%, negative = inhibition) at 1uM” value was 15.7%.

Consider `CC(C)Cn1c(/C=C/c2ccccc2)nc2ccccc21`, for which the “hERG current change (%, negative = inhibition) at 1uM” value is 3.22%.

`Cc1c(N=c2scc(-c3ccccc3)n2CCO)c(=O)n(-c2ccccc2)n1C`: the “hERG current change (%, negative = inhibition) at 1uM” value worked out at 6.87%.

In the case of `COc1ccc(C(=O)N2CCN(c3ccc(NC(=O)Cc4ccccc4)cc3)CC2)cc1`, the “hERG current change (%, negative = inhibition) at 1uM” value is on record as -3.31%.

On to `CCCc1nc(N2CCN(C)CC2)c2sc(=S)n(-c3ccccc3)c2n1`, for which the “hERG current change (%, negative = inhibition) at 1uM” value turned out to be 5.19%.

On to `CC(C)OC(=O)C(C)Nc1ccc(F)c(Cl)c1` (stereo not shown), for which the “hERG current change (%, negative = inhibition) at 1uM” value is 13%.

In the case of `COc1ccc(-n2c(=O)c3ccccc3c3ccccc3c2=O)cc1`, the “hERG current change (%, negative = inhibition) at 1uM” value was found to be 12.4%.

`COc1ccc(S(=O)(=O)NCc2cc(-c3ccccc3Cl)no2)cc1`: the “hERG current change (%, negative = inhibition) at 1uM” value worked out at 16.2%.

For the molecule `Cc1ccc(S(=O)(=O)/C=C2\NC(=O)CS2)cc1`, the “hERG current change (%, negative = inhibition) at 1uM” value worked out at 3.73%.

As to `Cn1cc(C(=O)NP(=O)(N2CCOCC2)N2CCOCC2)c2ccccc21`, the “hERG current change (%, negative = inhibition) at 1uM” value is 13.4%.

As for `Cc1ccc(N2C(=O)N3[C@H](c4cccc(C)c4)[C@@H]4C(=O)N(Cc5ccccc5)C(=O)[C@@H]4[C@]3(C)C2=O)cc1`, the “hERG current change (%, negative = inhibition) at 1uM” value came out at 7.91%.

For the molecule `CCc1nnc(NC(=O)c2nc3nccc(C)n3n2)s1`, the “hERG current change (%, negative = inhibition) at 1uM” value is given as 4.12%.

As for `COc1ccc(OCCC(=O)OCC(=O)Nc2cccc(S(=O)(=O)N3CCOCC3)c2)cc1`, the “hERG current change (%, negative = inhibition) at 1uM” value turned out to be 13.9%.

As for `O=C(COC(=O)CCOc1ccccc1)NCCC1=CCCCC1`, the “hERG current change (%, negative = inhibition) at 1uM” value is 15.8%.

On to `Clc1ccc(CSc2nnc(-c3c[nH]c4ccccc34)o2)cc1`, for which the “hERG current change (%, negative = inhibition) at 1uM” value turned out to be 12.1%.

As for `Cc1csc(NC(=O)CSc2nc3nc(C)cc(C)n3n2)n1`, the “hERG current change (%, negative = inhibition) at 1uM” value was 9.96%.

In the case of `Cc1ccc(C(=O)NCC(=O)OCC(=O)Nc2cccc(S(=O)(=O)N3CCCC3)c2)cc1C`, the “hERG current change (%, negative = inhibition) at 1uM” value is -2.74%.

With `Br.Cc1nn2cc(-c3ccc(Cl)cc3)nc2s1`, the “hERG current change (%, negative = inhibition) at 1uM” value is given as 2.28%.

Regarding `Cc1cc(C(=O)Nc2ccccc2C#N)n(-c2ccccc2)n1`, the “hERG current change (%, negative = inhibition) at 1uM” value was 6.6%.

For `CC(NC(=O)COc1ccccc1)C(c1ccccc1)N1CCN(C)CC1` (stereo not shown), the “hERG current change (%, negative = inhibition) at 1uM” value was -4.03%.
